Measurements taken from PubChem BioAssay AID624417 (National Center for Advancing Translational Sciences (NCATS), 2012).
The whole screen tested about 410,000 compounds, of which about 6,400 (1.6%) were called active. The inconclusive results got no clear call from the source; some entries with a clear call stand among them for comparison. The call rests on the fitted dose curve; in most records, active means well fitted inhibition curve with a large enough effect; inconclusive means small, poorly fitted or top-dose-only effect; inactive means no such curve, though single readings can be large or run the other way. No potency is given beside an inconclusive call; the fits are too rough.

Target: Glucagon-like peptide 1 receptor (Homo sapiens) (UniProt P43220)
Chain of UniProt P43220 (P43220 whole entry, looked up): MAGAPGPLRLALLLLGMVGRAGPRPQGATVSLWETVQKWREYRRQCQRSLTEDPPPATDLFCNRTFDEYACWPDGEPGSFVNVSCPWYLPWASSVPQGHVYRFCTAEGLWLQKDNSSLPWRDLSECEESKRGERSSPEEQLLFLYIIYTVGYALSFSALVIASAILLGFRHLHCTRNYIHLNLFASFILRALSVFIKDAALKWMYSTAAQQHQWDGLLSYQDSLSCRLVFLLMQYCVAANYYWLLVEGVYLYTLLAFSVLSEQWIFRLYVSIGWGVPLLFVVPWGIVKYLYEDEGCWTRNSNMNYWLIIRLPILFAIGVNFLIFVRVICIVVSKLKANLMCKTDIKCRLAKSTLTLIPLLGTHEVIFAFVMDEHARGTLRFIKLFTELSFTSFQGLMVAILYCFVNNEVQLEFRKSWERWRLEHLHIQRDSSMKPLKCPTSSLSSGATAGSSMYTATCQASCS
Assay: qHTS of GLP-1 Receptor Inverse Agonists (Inhibition Mode); further: nearly all actives have a fitted effect of over 55% in size
Conditions: HEK293 GLP-1R CRE-luciferase, luminescence, 24 h, GLP-1R form is constitutively active; activity change, negative = inhibition: at 38.3 µM (top of the series) unless noted
How it was run: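 HEK293 cells stably co-expressing constitutively active GLP-1R and a cAMP-responsive luciferase reporter were seeded in DMEM with 10% Nu serum, given compounds after 12 h, and incubated 24 h at 37 deg C. Luminescence was then read.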
On the % scale 0 is the no-effect control and ±100 the full control effect; potency means the concentration at half of the fitted maximal effect; tags describe the fitted curve by direction and shape.

| SMILES | activity change, negative = inhibition | Potency |
| --- | --- | --- |
| N#Cc1c2c(c(NCCN3CCOCC3)n3c1nc1ccccc13)CCCC2 | inactive: 47.3% | – |
| COc1cc(OC)c2c(C)cc(=O)oc2c1C(CCN1CCN(c2ccccc2)CC1)c1ccc2c(c1)OCO2 (stereo unspecified) | – | inconclusive [inhibitor, partial curve, poor fit] |
| O=C(CNC(=O)Cc1ccccc1)NCc1cccc(C(F)(F)F)c1 | inactive: -0.192% | – |
| O=C(CSc1nnnn1-c1ccccc1)N1CCCc2ccccc21 | – | inconclusive [inhibitor, partial curve, poor fit] |
| O=C(Cn1cc2c(n1)CCCCC2)Nc1ccccc1Cl | – | inconclusive [inhibitor, single point] |
| COC(=O)C1=CN(c2ccc(OC)cc2OC)C(N)=C(C#N)C1c1cccc([N+](=O)[O-])c1 (stereo unspecified) | – | inconclusive [inhibitor, full curve, poor fit] |
| C(=N\NC1=Nc2cccc3cccc1c23)/c1cccnc1 | – | inconclusive [inhibitor, partial curve, poor fit] |
| O=C(CCNC(=O)c1ccccc1)Nc1ccc(Cl)c(S(=O)(=O)N2CCCCC2)c1 | – | inconclusive [inhibitor, single point] |
| CC(C)Nc1nc(NCCOc2ccccc2)c2sccc2n1 | – | inconclusive [inhibitor, full curve, poor fit] |
| CN(C)S(=O)(=O)c1ccc(N2CCCC2)c(C(=O)Nc2nccs2)c1 | – | inconclusive [inhibitor, partial curve, poor fit] |
| Cc1ccc(NC(=O)c2ccc(OCC3CCCO3)cc2)nc1 (stereo unspecified) | – | inconclusive [inhibitor, single point] |
| CC1(C(=O)Nc2cccc(C(F)(F)F)c2)Cc2c(-c3cccc(C(F)(F)F)c3)ccnc2O1 (stereo unspecified) | – | inconclusive [inhibitor, partial curve, poor fit] |
| Cc1ccc2[nH]c3c(N4CCc5ccccc5C4)ncnc3c2c1 | – | inconclusive [inhibitor, partial curve] |
| COc1ccccc1CC(=O)c1ccc(OCc2ccccc2)cc1 | inactive: 2.41% | – |
| O=C(N/N=C/c1coc2ccc(Cl)cc2c1=O)c1ccc(O)cc1 | – | inconclusive [inhibitor, partial curve, poor fit] |
| Cc1cccc(NC(=S)N2CCC(N(C)CC3CCCO3)CC2)c1 (stereo unspecified) | – | inconclusive [inhibitor, full curve] |
| COc1ccccc1C(=O)NCC(c1ccco1)N1CCc2ccccc21 (stereo unspecified) | – | inconclusive [inhibitor, partial curve, poor fit] |
| Cc1ccccc1OCC(=O)Nc1ccccc1C(=O)OCc1cc(=O)n2c(C)csc2n1 | – | inconclusive [inhibitor, full curve, poor fit] |
| COCc1ccc(C(=O)NC2CCCc3c2cnn3-c2cc(C)cc(C)c2)s1 (stereo unspecified) | – | active: 7.08 µM |
| O=C(Nc1nccs1)c1cc2c(s1)CCCCC2 | – | inconclusive [inhibitor, full curve, poor fit] |
| c1ccc(Cc2nc(-c3ccccn3)no2)cc1 | inactive: -11% | – |

| SMILES | activity change, negative = inhibition | Potency |
| --- | --- | --- |
| Cc1cc(-c2nnc3n2N=C(C(C)(C)C)CS3)n[nH]1 | inactive: 26.4% | – |
| COc1ccccc1C(CC(=O)Nc1ccc(Cl)cc1)c1ccc(OC(C)C)cc1 (stereo unspecified) | – | inconclusive [inhibitor, partial curve, poor fit] |
| CCN1CCN(C2=C(NS(=O)(=O)c3ccccc3)C(=O)c3ccccc3C2=O)CC1 | inactive: -18.2% | – |
| CCn1c(SCC(=O)c2ccccc2)nc2sc3c(c2c1=O)CCN(C)C3 | – | inconclusive [inhibitor, partial curve, poor fit] |
| COc1ccccc1C(=O)Nc1c(C)cc(Br)cc1C | – | inconclusive [inhibitor, single point] |
| N#Cc1ccccc1Sc1ccccc1C(=O)Nc1ccc2ccccc2c1 | – | inconclusive [inhibitor, partial curve, poor fit] |
| CCCn1c(SCC(=O)NC2CCCC2)nnc1-c1ccccn1 | inactive: 11% | – |
| COc1ccc(/C=C2\Oc3cc(OCC(=O)N4CC(O)C[C@H]4C(=O)O)ccc3C2=O)cc1OC (stereo partly specified) | – | inconclusive [inhibitor, single point] |
| CCN1CCN(CCCNC(=O)c2cc3c(s2)-c2c(C)cccc2OC3)CC1 | – | inconclusive [inhibitor, full curve, poor fit] |
| CCOc1cccc(C2NC(=S)NC(C)=C2C(=O)Nc2ccccc2)c1 (stereo unspecified) | – | inconclusive [inhibitor, single point] |
| CC1=CC(C)(C(Cl)(Cl)Cl)C(C)=CC1=NO (stereo unspecified) | – | inconclusive [inhibitor, single point] |
| CCn1nc(C)c(CN2CCc3c([nH]c4ccccc34)C2c2ccc(F)c(OC)c2)c1C (stereo unspecified) | – | inconclusive [inhibitor, partial curve, poor fit] |
| COC(=O)CCCC1=CC2=CC(=O)C(C)(OC(=O)CCc3ccccc3)C(=O)C2=CO1 (stereo unspecified) | inactive: 1.75% | – |
| CCOC(=O)N1CCC(n2c(SCC(=O)OCc3ccccc3)nc3ccsc3c2=O)CC1 | – | inconclusive [inhibitor, partial curve, poor fit] |
| O=C(COc1cccc2cccnc12)N/N=C/c1ccccc1O | – | inconclusive [inhibitor, partial curve] |
| CCOc1ccccc1CNC(=O)c1[nH]c2ccccc2c1Sc1ccccc1 | – | inconclusive [inhibitor, single point] |
| COc1ccc(-c2cc(CNS(=O)(=O)c3ccc(F)cc3)on2)cc1 | – | inconclusive [inhibitor, partial curve] |
| CC1(C(=O)NC2CCCC2)CCN1C(=O)Cc1ccc(-c2ccccc2)cc1 (stereo unspecified) | – | inconclusive [inhibitor, single point] |
| O=C1NC(NS(=O)(=O)c2ccc(Cl)cc2)(C(F)(F)F)C(=O)N1CCc1ccccc1 (stereo unspecified) | – | inconclusive [inhibitor, partial curve, poor fit] |
| CO[C@H]1CN(C)C(=O)c2ccc(NC(=O)C3CCC3)cc2OC[C@H](C)N(CC2CCCCC2)C[C@@H]1C | – | inconclusive [inhibitor, partial curve, poor fit] |
